# Source: the supplement of paper PMC4967469
# IC50 is the fitted dose that halves viability relative to control wells, and lower means more sensitive; a fit beyond the top or the lowest dose is shown as a bound at that dose. AUC, from the same fit, is the share of area under the viability curve across the 256-fold dose range; it is 1 without any effect and falls as sensitivity rises. For some assays here: An inferred top dose was derived from the fitted curves, not read from the paper. For some assays here: An entry number marks a drug with two screens in the source, which often give different values.
# What was measured:
# Assay in all cases: Viability of human cancer cell lines after 72 h of drug (GDSC screen)
# CEP-701 = compound: C[C@]12O[C@H](C[C@]1(O)CO)n1c3ccccc3c3c4c(c5c6ccccc6n2c5c31)CNC4=O [CEP-701]; conditions: top dose 2 µM; top dose inferred
# Experimental: (§1)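 Human cancer cell lines in 384-well plates, medium with 10% serum, drug for 72 h over a 256-fold dose range (nine 2-fold or five 4-fold steps up to the top dose). Adherent lines were fixed and stained with the nucleic acid dye Syto60, suspension lines read with resazurin; signal relative to control wells, capped at 0 and 100%. One two-parameter sigmoid per drug and line, fitted in a mixed model over all curves with the slope shared within a line.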
# Pazopanib = compound: Cc1ccc(Nc2nccc(N(C)c3ccc4c(C)n(C)nc4c3)n2)cc1S(N)(=O)=O [Pazopanib]; conditions: top dose 8 µM
# Experimental: as §1
# MG-132 = compound: CC(C)C[C@@H](C=O)NC(=O)[C@H](CC(C)C)NC(=O)[C@H](CC(C)C)NC(=O)OCc1ccccc1 [MG-132]; conditions: top dose 1 µM
# Experimental: as §1
# SB 216763 = compound: Cn1cc(C2=C(c3ccc(Cl)cc3Cl)C(=O)NC2=O)c2ccccc21 [SB 216763]; conditions: top dose 10 µM; top dose inferred
# Experimental: as §1
# AR-42 = compound: CC(C)[C@H](C(=O)Nc1ccc(C(=O)NO)cc1)c1ccccc1 [AR-42]; conditions: top dose 5.12 µM; top dose inferred
# Experimental: as §1
# GDC0941 = compound: CS(=O)(=O)N1CCN(Cc2cc3nc(-c4cccc5[nH]ncc45)nc(N4CCOCC4)c3s2)CC1 [GDC0941]; conditions: top dose 4 µM; screen: GDSC drug entry 1527; top dose inferred
# Experimental: as §1
# Sunitinib = compound: CCN(CC)CCNC(=O)c1c(C)[nH]c(/C=C2\C(=O)Nc3ccc(F)cc32)c1C [Sunitinib]; conditions: top dose 8 µM
# Experimental: as §1
Cell Line,AUC (CEP-701),IC50 (CEP-701) [µM],AUC (Pazopanib),IC50 (Pazopanib) [µM],AUC (MG-132),IC50 (MG-132) [µM],AUC (SB 216763),IC50 (SB 216763) [µM],AUC (AR-42),IC50 (AR-42) [µM],AUC (GDC0941),IC50 (GDC0941) [µM],AUC (Sunitinib),IC50 (Sunitinib) [µM]
"SU-DHL-6 (B-cell lymphoma, suspension)",0.493,0.12,0.882,4.8,0.585,0.101,0.941,> 10,0.244,0.075,0.621,0.493,0.775,2.39
"HCC2157 (breast, suspension)",0.67,0.382,0.982,> 8,0.722,0.275,0.987,> 10,0.78,2.22,0.784,1.79,0.966,> 8
"MPP-89 (mesothelioma, adherent)",0.597,0.251,0.772,4.05,0.858,> 1,0.953,> 10,0.294,0.0694,0.835,3.84,0.911,> 8
"DND-41 (T-cell leukaemia, suspension)",0.531,0.151,0.971,> 8,0.707,0.221,0.982,> 10,0.357,0.136,0.905,> 4,0.79,3.1
"TE-1 (oesophagus, adherent)",0.702,0.543,0.98,> 8,0.686,0.24,0.971,> 10,0.954,> 5.12,0.694,1.02,0.878,> 8
"L-428 (Hodgkin lymphoma, suspension)",0.821,0.983,0.987,> 8,0.854,0.644,0.993,> 10,0.988,> 5.12,0.974,> 4,0.92,> 8
"H9 (lymphoid neoplasm, suspension)",0.564,0.181,0.992,> 8,0.734,0.249,0.991,> 10,0.986,> 5.12,0.94,> 4,0.752,2.24
"IST-MEL1 (melanoma, adherent)",0.604,0.256,0.847,7.73,0.799,0.588,0.948,> 10,0.616,0.711,0.837,3.45,0.794,4.5
"SU-DHL-16 (B-cell lymphoma, suspension)",0.384,0.0654,0.948,> 8,0.704,0.195,0.993,> 10,0.162,0.0465,0.51,0.264,0.789,2.56
"SR (lymphoid neoplasm, suspension)",0.413,0.0742,0.873,6.41,0.791,0.399,0.988,> 10,0.168,0.0361,0.735,1.08,0.691,1.61
"MRK-nu-1 (breast, suspension)",0.937,> 2,0.945,> 8,0.797,0.43,0.981,> 10,0.801,2.26,0.989,> 4,0.9,> 8
"LU-165 (small cell lung carcinoma, suspension)",0.987,> 2,0.958,> 8,0.925,> 1,0.988,> 10,0.484,0.288,0.863,> 4,0.98,> 8
"NB1 (neuroblastoma, semi-adherent)",0.778,0.894,0.968,> 8,0.792,0.506,0.979,> 10,0.853,4.66,0.787,1.93,0.711,2.12
"BL-41 (Burkitt lymphoma, suspension)",0.485,0.115,0.947,> 8,0.531,0.0744,0.922,9.09,0.277,0.0898,0.88,2.51,0.746,2.04
"GB-1 (glioma, adherent)",0.563,0.191,0.81,5.18,0.705,0.265,0.926,> 10,0.308,0.0836,0.82,2.84,0.629,1.21
"ALL-SIL (T-cell leukaemia, suspension)",0.528,0.148,0.814,3.6,0.838,0.546,0.975,> 10,0.251,0.0702,0.684,0.751,0.635,1.12
